PubChem BioAssay AID1508642 (National Center for Advancing Translational Sciences (NCATS), 2021)
The whole screen tested about 43,000 compounds, of which about 200 (0.47%) were called active. About 12% were inconclusive and are not listed. The call rests on the fitted dose curve; in most records, active means well fitted cell-killing curve with a large enough effect; inconclusive means small, poorly fitted or top-dose-only effect, or effect the other way; inactive means flat fitted curve, though single readings scatter. The list shows a part of the results.

Experiment: Cell viability qHTS assay in S16 Pmp22-F2sN cells; further: nearly all actives have a fitted effect of over 65% in size
Details: S16 Pmp22-F2sN Schwann cells (luciferase reporters placed in the Pmp22 gene) viability, CellTiter-Glo, 24 h; series mostly up to 57.5 µM; activity change, negative = cytotoxicity: at the top concentration
Outline: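 Seed 500-1,000 S16 Pmp22-F2sN cells per well in phenol-red-free DMEM with 10% heat-inactivated FBS; pin-add 23 nL compound; incubate 24 h at 37C; add CellTiter-Glo, wait 15 min protected from light; read luminescence.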
On the % scale 0 is the no-effect control and ±100 the full control effect.

Row | SMILES | activity change, negative = cytotoxicity
1 | CC1CCCCN1C(=O)CSc1nc2ccccc2nc1Cc1ccccc1 (stereo not drawn) | inactive: -11.5%
2 | COc1ccc(-c2cc3c(=O)n(CC(=O)Nc4ccccc4C(F)(F)F)ccn3n2)cc1OC | inactive: -0.159%
3 | COc1ccc(C(c2c(C)n(C)n(-c3ccccc3)c2=O)c2c(C)n(C)n(-c3ccccc3)c2=O)cc1O | inactive: -11.7%
4 | Cc1ccc(N2CC(NC(=O)Cc3cccs3)CC2=O)cc1 (stereo not drawn) | inactive: 9.12%
5 | CCOc1cccc2sc(N(Cc3cccnc3)C(=O)c3ccco3)nc12 | inactive: 4.95%
6 | Cc1c(C(=O)Nc2ccc(Br)cc2F)oc2ccc(S(=O)(=O)N3CCCCC3)cc12 | inactive: 9.5%
7 | CC1(C(=O)Nc2cccc(C(F)(F)F)c2)Cc2ccccc2C(=O)O1 (stereo not drawn) | inactive: -21%
8 | CC(=O)c1ccc(NC(=O)CN(C)S(=O)(=O)c2cc3c(cc2C)NC(=O)CO3)cc1 | inactive: 2.59%
9 | CC1CCN(CC(=O)N2CCCc3c2c(=O)oc2ccc(OCc4ccccc4)cc32)CC1 | inactive: -9.79%
10 | CC(C)CCN1C(=O)N(c2ccccc2)C(=O)C1CC(=O)Nc1ccc(Cl)cc1 (stereo not drawn) | inactive: 0.556%
11 | CC(C)NC(=O)CSc1nc2ccccc2nc1N1CCCCC1 | inactive: 11.2%
12 | Cc1ccc(Sc2ccc(N3CCCC(C(=O)Nc4ccc(Cl)cc4)C3)nn2)cc1 (stereo not drawn) | inactive: -19.6%
13 | CC1=C(C(=O)Nc2cccc(C)c2C)C2(CCCCC2)OC1=O | inactive: -2.24%
14 | COc1ccc(CCNC(=O)c2cnc3sc(N4CCCCCC4)nn3c2=O)cc1OC | inactive: -0.0917%
15 | COc1ccc(OC)c(CNS(=O)(=O)c2c(C(=O)N3CCC(C)CC3)c(C)n(C)c2C)c1 | inactive: 7.59%
16 | Cc1cc(C)cc(NC(=O)Cn2nnc(C(=O)NCCc3ccccc3)c2N)c1 | inactive: 9.39%
17 | O=C(Nc1cccc(C(F)(F)F)c1)C1CCCN(S(=O)(=O)c2cccc3nsnc23)C1 (stereo not drawn) | inactive: -7.82%
18 | Cc1ccc2c(CC(=O)N3CCN(c4cccc(Cl)c4)CC3)coc2c1 | inactive: -24.1%
19 | CCCCNc1ccc(-c2nc(-c3ccccc3)no2)cc1[N+](=O)[O-] | inactive: 0.476%
20 | CSc1ncc(Cl)c(C(=O)NCc2ccc(C)cc2)n1 | inactive: 3.84%
21 | COc1cc(Nc2nc(SCc3ccccc3F)nc3ccccc23)cc(OC)c1 | inactive: -26.9%
22 | CCOc1ccccc1NC(=O)CSc1c(C)cnc2c1c(=O)n(C)c(=O)n2C | inactive: -1.05%
23 | Cc1ccc(CCNC(=O)c2ccc(CS(=O)(=O)c3ccc(Br)cc3)o2)cc1 | inactive: 13.5%
24 | Cc1cccc(NC(c2cccc(F)c2)c2ccc3ccc(C)nc3c2O)n1 (stereo not drawn) | inactive: -13.1%
25 | c1ccc(-c2cc(-c3ccccc3)c3c(n2)-c2ccccc2OC3)cc1 | inactive: 23.6%

Row | SMILES | activity change, negative = cytotoxicity
26 | Cc1nc2ccc(S(=O)(=O)NC(C(=O)NCc3ccccc3Cl)C(C)C)cc2s1 (stereo not drawn) | inactive: -0.371%
27 | CC1CCN(S(=O)(=O)c2ccc3c(c2)N(CC(=O)NCc2ccccc2Cl)C(=O)CS3)CC1 | inactive: -5.91%
28 | NC(=O)CSc1nc2ccc(NC(=O)COc3ccccc3)cc2s1 | inactive: 7.24%
29 | CC1CCC(NC(=O)c2ccc3c(c2)N(Cc2ccccc2F)C(=O)c2ccccc2S3)CC1 (stereo not drawn) | inactive: 11.7%
30 | CCCn1c(=N)c(C(=O)NC2CCCC2)cc2c(=O)n3cc(C)ccc3nc21 | inactive: 10.7%
31 | O=C(CC(c1cccs1)N1Cc2ccccc2C1=O)Nc1ccccc1F (stereo not drawn) | inactive: -0.756%
32 | Cc1ccc(-c2nn(CCC(=O)Nc3ccc(Cl)c(Cl)c3)c(=O)c3ccccc23)cc1 | inactive: 7.56%
33 | COc1ccc(-c2nc(S(=O)(=O)c3ccc(Cl)cc3)c(N3CCCCCC3)o2)cc1 | inactive: -3.76%
34 | Cc1ccc(C(=O)NCCSc2c(C)[nH]c3ccccc23)cc1C | inactive: -2.29%
35 | CCOc1cc(C2C(C(N)=O)=C(C)Nc3ncnn32)cc(Br)c1O (stereo not drawn) | inactive: 5.61%
36 | Cc1ccc(NC(=O)CN2C(=O)CSc3ccc(S(=O)(=O)N(C)C)cc32)cc1C | inactive: -29.8%
37 | COC(=O)c1cc2occc2n1Cc1ccc(F)cc1Cl | inactive: 0.139%
38 | Cc1ccc(CSC2=Nc3ccccc3C3=NC(CCC(=O)NCCc4ccccc4)C(=O)N23)cc1 (stereo not drawn) | inactive: -3.9%
39 | Nc1nc2nc(-c3ccc(Cl)cc3)cc(C(F)(F)F)n2n1 | inactive: 9.22%
40 | CC(=O)N1c2ccccc2C(=O)C1N1CCN(c2cccc(C)c2C)CC1 (stereo not drawn) | inactive: -0.236%
41 | Cc1ccc(NC(=O)CSc2nc3c(c(=O)[nH]2)CN(Cc2ccccc2)CC3)cc1Cl | inactive: 1.43%
42 | Nc1nonc1-c1nc2ccccc2n1Cc1ccc(Br)cc1 | inactive: 6.24%
43 | CC1(C)CC(=O)c2cc(C(=O)Nc3ccc(Cl)cc3)c(=O)[nH]c2C1 | inactive: 8.44%
44 | Cc1ccc(NC(=O)C2=CC(c3cccs3)=NS(=O)(=O)N2C)cc1 | inactive: -4.4%
45 | CC(C)(Oc1ccc(Cl)cc1)C(=O)Nc1cccc(-c2cn3cccnc3n2)c1 | inactive: -0.303%
46 | CCOC(=O)c1[nH]c(C)c(CCC(=O)NCc2cccc(Cl)c2)c1C | inactive: -15.7%
47 | COc1cc(-c2cc3n(C)c(C)c(CCC(=O)Nc4ccc(F)cc4)c(=O)n3n2)cc(OC)c1OC | inactive: 22.8%
48 | COC(=O)c1ccc([C@@H]2Nc3c(cccc3C(F)(F)F)[C@@H]3C=CC[C@@H]32)cc1 | inactive: 1.98%
49 | Cc1ccccc1CN1C(=O)c2ccccc2Sc2ccc(C(=O)N3CCOCC3)cc21 | inactive: -10.7%
50 | COc1ccccc1-c1c(C(F)(F)F)oc2c(CN3CCCCC3C)c(O)ccc2c1=O (stereo not drawn) | inactive: 17.6%

Row | SMILES | activity change, negative = cytotoxicity
51 | CCN1C(=O)c2ccccc2S(=O)c2ccc(C(=O)N3CCN(c4ccc(F)cc4)CC3)cc21 (stereo not drawn) | inactive: 23.6%
52 | Cc1cccc(-c2nc(-c3ccc4c(c3)[nH]c(=O)n4C)no2)c1 | inactive: -1.38%
53 | CC(=O)c1[nH]c(C)c(C(=O)NCc2ccc(Cl)cc2)c1C | inactive: -27.8%
54 | O=C(Nc1ccc2oc(-c3cccc4c(Br)cccc34)nc2c1)c1ccc(Br)cc1 | inactive: -3.72%
55 | Cc1cc(F)ccc1NC(=O)CCS(=O)(=O)c1cccc2nsnc12 | inactive: -0.23%
56 | Cc1ccc(S(=O)(=O)N2CCC(C(=O)Nc3cc(C)ccc3C)CC2)cc1 | inactive: -0.103%
57 | Cc1cccc(NC(=O)CSc2nc3c(oc4ccccc43)c(=O)n2-c2ccccc2)c1C | inactive: -14.9%
58 | CCN(C(=O)c1cc2c(=O)oc3ccccc3c2s1)c1cccc(C(F)(F)F)c1 | inactive: 7.16%
59 | CCOc1ccc(OCC)c(Nc2nc3ccccc3n3nnnc23)c1 | inactive: -0.103%
60 | COc1ccc(-c2nc3ccccc3o2)cc1NC(=O)c1ccc(-c2ccc(C)c(Cl)c2)o1 | inactive: 7.34%
61 | COCCNC(=O)c1ccc2c(c1)NC(=O)C(CS(=O)(=O)Cc1ccc(F)cc1Cl)N2 (stereo not drawn) | inactive: 2.48%
62 | COc1ccc(NC(=O)c2c(NC(=O)c3cccc(C)c3)sc3c2CCC3)cc1 | inactive: 5.1%
63 | COc1cccc(CNC(=O)c2ccc3oc(=O)n(Cc4ccccc4)c3c2)c1 | inactive: -16.9%
64 | COc1ccccc1Nc1ncc2c(n1)CCN(CC(C)C)C2 | inactive: 12.7%
65 | O=C(CN1C=NS(=O)(=O)c2ccccc21)Nc1ccc(Br)cc1 | inactive: -1.51%
66 | Cc1ccccc1CNC(=O)CCCn1ncn2c(cc3occc32)c1=O | inactive: -15.4%
67 | COc1ccc(NC(=O)CSC2=Nc3ccccc3C3=NC(Cc4ccccc4)C(=O)N23)cc1 (stereo not drawn) | inactive: -0.425%
68 | O=C(CSc1nc2c(c(=O)[nH]1)CCC2)Nc1cccc(O)c1 | inactive: -1.45%
69 | COc1ccc(OC)c(NC(=O)Nc2cccc(OCc3cc(=O)n4cc(C)ccc4n3)c2)c1 | inactive: 15.3%
70 | Cc1ccc(NC(=O)CSc2nnc(C)s2)c(C)c1 | inactive: 23.4%
71 | COc1ccc(NC(=O)C2CCN(c3nc4ccccc4[nH]3)CC2)cc1OC | inactive: 17.4%
72 | CCCCN1C(=O)C(NC(=O)c2ccc(C(C)(C)C)cc2)(C(F)(F)F)C(C(=O)OC)=C1C (stereo not drawn) | inactive: -3.05%
73 | Cc1cc(O)c(C(c2ccc(F)cc2)N2CCN(c3ccccc3)CC2)c(=O)n1Cc1ccco1 (stereo not drawn) | inactive: -8.11%
74 | CCn1c(=O)c2sccc2n2c(CCCC(=O)Nc3ccc(C)cc3)nnc12 | inactive: -0.685%
75 | COc1cc(NC(=O)c2c(C)nn(-c3ccc(F)cc3)c2-n2cccc2)cc(OC)c1 | inactive: 17.8%

Row | SMILES | activity change, negative = cytotoxicity
76 | Cc1ccc(N2CCN(c3ncnc4onc(-c5ccc(F)cc5)c34)CC2)c(C)c1 | inactive: -4.61%
77 | COC(=O)c1ccccc1NC(=O)CSc1cc(-c2ccccc2)nc(C)n1 | inactive: -4.1%
78 | COc1ccc(NC(=O)N2CCC(CN3CCCC3)CC2)c(OC)c1 | inactive: -14.2%
79 | O=C(CCn1c(=O)c2cccn2c2ccc(F)cc21)NCCc1ccc(Cl)cc1 | inactive: -1.69%
80 | O=C(C1CCCN(S(=O)(=O)c2cccc3nonc23)C1)N1CCN(c2ccccc2F)CC1 (stereo not drawn) | inactive: 2.13%
81 | Clc1ccc(-c2ccc(CNCCSc3nnnn3-c3ccccc3)o2)cc1 | inactive: -1.56%
82 | COc1ccc(C)cc1NC(=O)CSc1nc(=O)n(Cc2cccnc2)c2c1CCC2 | inactive: 9.25%
83 | Clc1cccc(-n2ncc3c(NCCC4=CCCCC4)ncnc32)c1 | inactive: 0.831%
84 | COc1ccc(OC)c(C(=O)CN2C(=O)N(c3cc(C)cc(C)c3)S(=O)(=O)c3ccccc32)c1 | inactive: -13.2%
85 | CCN1CCN(c2oc(-c3ccc(COc4ccc(OC)cc4)o3)nc2C#N)CC1 | inactive: 13%
86 | CC(C)(C)OC(=O)N1CCC(c2c(C(=O)NCCN3CCOCC3)cnn2-c2cccc(F)c2)CC1 | inactive: 1.2%
87 | CC(=O)c1ccc(N2C(=O)N(Cc3ccc(F)cc3)c3ccccc3S2(=O)=O)cc1 | inactive: 25.9%
88 | CCN(CC)S(=O)(=O)c1nnc(NC(=O)COc2ccccc2)s1 | inactive: -5.45%
89 | Cc1ccc(S(=O)(=O)c2cn(C)c3cc(N4CCOCC4)c(F)cc3c2=O)c(C)c1 | inactive: -16.5%
90 | COc1ccc(N2CCN(c3ncnc4c3nc3n4CCCCC3)CC2)cc1 | inactive: -17.8%
91 | Oc1c(C(c2ccc(F)cc2)N2CCCC2)sc2nc(-c3ccco3)nn12 (stereo not drawn) | inactive: 12.2%
92 | Cc1ccc(CCNC(=O)C2COc3ccccc3C2)cc1 (stereo not drawn) | inactive: -12.6%
93 | Cc1cc(C)n(-c2nc3cc(Cl)ccc3nc2N2CCN(c3cccc(C)c3C)CC2)n1 | inactive: 3.56%
94 | COc1ccccc1CNS(=O)(=O)c1c(C(=O)N2CCC(C)CC2)c(C)n(C)c1C | inactive: 2.52%
95 | Cc1ccc(CCNC(=O)Cn2ncc3c([nH]c4ccccc43)c2=O)cc1 | inactive: 9.6%
96 | Cc1ccc2c(c1)-c1onc(C(=O)N3CCN(c4cc(C)ccc4C)CC3)c1CO2 | inactive: -4.1%
97 | CC(=O)c1ccc(NC(=O)NCCc2c[nH]c3ccccc23)cc1 | inactive: 9.08%
98 | CCCCCn1c(=O)[nH]c2cc(C(=O)Nc3ccc(F)cc3)ccc2c1=O | inactive: -0.794%
